# Reference: the supplement of paper PMC3334620
# The full ranking holds about 33,000 sequences; the median of “E-score (-0.5 to 0.5)” is about -0.01, and the highest 2% start at about 0.26. The list shows a part of the results.
# Biological target: Ste12 (UniProt P13574)
# Assay: PBM E-score (8-mer binding enrichment) (E-score (-0.5 to 0.5)); higher = stronger / more preferred TF binding; most listed sequences are background and not binding sites
# Conditions: protein concentration: 200 nM; construct: GST-DNA-binding domain
# In short: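 Bound GST-tagged yeast transcription factors, applied at about 100-200 nM to double-stranded universal all-10-mer Agilent arrays, were detected with fluorescent anti-GST. Scans were normalised with masliner. A modified Wilcoxon-Mann-Whitney statistic, the E-score, was assigned to each ungapped eight-base word pooled with its reverse complement by the Universal PBM Analysis Suite.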
row,Sequence,PBM E-score
1,ACTGCCGC,0.147
2,AGTAAAAC,0.168
3,CGTGCATC,0.0466
4,AACAAATG,0.176
5,CCTTTTAC,0.178
6,ACTTAGAT,-0.0771
7,GGACATAC,-0.145
8,CTTCCAAA,0.0685
9,CGGAGCTC,-0.149
10,CCCATGAA,0.0211
11,ATGCAGAC,-0.137
12,TCAGGCAA,0.0795
13,CCCTCTAG,-0.228
14,CACAATGA,0.122
15,CAAAATTG,0.0598
16,ATGTAGAG,-0.0714
17,ATCCATCG,-0.185
18,GATAACGA,-0.00637
19,GACTCGCA,-0.153
20,AAGTCTGG,-0.077
21,ATCATATG,-0.0776
22,CAGCAGCA,0.103
23,AGTCTGCA,-0.122
24,CCATCTTA,0.127
25,CACAGTAG,-0.043

row,Sequence,PBM E-score
1,CGAGGGAG,-0.0694
2,ACTAGTTG,-0.0385
3,GTACAGAC,-0.237
4,AATCGGTC,0.128
5,CTCAAACC,0.0438
6,AATGGCGG,0.0559
7,ATGCTGCG,-0.125
8,CCCTCTGC,-0.356
9,CCGATACA,0.174
10,CCATAGCA,-0.0413
11,ATAAAACA,0.368
12,ACCTCGTA,-0.0905
13,CGCCACAC,0.0927
14,CGGATGAA,0.268
15,CTTTAAAC,0.0682
16,GCTCTTCA,-0.0243
17,CATACTCA,0.0427
18,TAGGGGCA,-0.132
19,GACTGCGC,-0.123
20,AACCCGGC,-0.00525
21,AGTCGGGA,-0.0346
22,TCGAGCAA,0.0267
23,AGGACATG,-0.0929
24,CGACGAGC,-0.192
25,ACTGGGGC,-0.12

row,Sequence,PBM E-score
1,CCTTAAGC,-0.0937
2,TCGGAGAA,0.00947
3,GATAACCA,0.108
4,CGGTCTAC,-0.145
5,AACAATCG,-0.0669
6,CGTTAGTA,0.052
7,GGCTGACC,-0.162
8,ATAGGCGA,0.0142
9,CAATCCTA,-0.00222
10,AGTCGGGG,0.0136
11,AGACCTAG,-0.0522
12,AACTAGTG,0.0672
13,CGTCCGAG,-0.0853
14,ACGCGGGG,0.177
15,CACTGCTA,-0.149
16,CCCCTAGC,-0.0779
17,GGCACGCA,-0.121
18,ACAGTAAC,0.151
19,ATAGTGCG,0.0362
20,AACACGGA,0.0829
21,CATCTACC,0.131
22,AAGGGCGC,0.034
23,CCGGCCAC,-0.188
24,AGGTATGC,-0.123
25,ACTAAGTA,-0.0288

row,Sequence,PBM E-score
1,CAGCGTTA,-0.0599
2,TAAATAAA,0.228
3,GACAGGTC,-0.303
4,GCAGGCGA,-0.165
5,CGGACTTA,-0.156
6,AGAACTTC,-0.154
7,AACTATGG,-0.0761
8,GCTAGGCC,-0.168
9,AGTATTAT,-0.0081
10,TAATGTCA,0.11
11,GAAGATAC,0.172
12,CCCACCCA,0.269
13,AACTAGGA,0.049
14,CTATTTGA,0.141
15,AGGACAGG,-0.148
16,AAAGGTTG,-0.111
17,CCTGACGC,-0.186
18,CAAAAATG,0.182
19,CTTCTTGA,0.0821
20,CTTTACAA,0.204
21,CTATCACC,-0.0719
22,AGATCCCA,-0.16
23,AGACGCTC,-0.143
24,AAGGCTCC,-0.123
25,CCGACCCC,-0.0867

row,Sequence,PBM E-score
1,AACGAACG,0.0641
2,CTTGTCTA,0.0321
3,AAATACGT,0.142
4,CTCTGCGA,0.0178
5,CTCGTTAC,-0.175
6,TATGTCGA,0.00893
7,AGATTGTC,-0.0744
8,GGAGTCAA,0.0563
9,GGCGAATA,-0.0412
10,GCACTAAA,0.0115
11,GTTAACGA,0.0151
12,CAGCTGGA,-0.092
13,ACTGGACG,-0.136
14,ACCAGAGA,0.00409
15,GATGATCA,0.0307
16,GCCATACA,0.132
17,ACTAATCG,0.103
18,GAGCACGA,0.124
19,CGCGCTAG,0.0824
20,ATCCACAC,-0.0961
21,TACTTCCA,0.0198
22,AAGTGTCG,0.093
23,CGTCGGTC,0.133
24,TAGGTTCA,0.0464
25,CCCCTTGA,0.0534

row,Sequence,PBM E-score
1,AGCTAGAT,0.0137
2,ATAGGAGA,-0.063
3,GGCCGTAA,-0.0729
4,CGGCATGC,-0.026
5,AGAATGCA,0.0948
6,CCGGAATA,0.0345
7,GTTAAGCA,-0.115
8,GCAGACAC,0.00338
9,ATCAAATG,0.123
10,GTTAGCTA,0.0536
11,AATGTAAA,0.269
12,GTGGTTAA,0.176
13,GCGGGGAC,0.191
14,CGTCGTGC,0.056
15,AGGTATAA,0.0586
16,TGCCTACA,-0.157
17,ACTAGGGG,-0.154
18,AATCATCT,-0.0762
19,AGATCGTG,0.0231
20,AAGGCCCA,-0.0384
21,CACGCATG,-0.072
22,CCTGGTCA,-0.016
23,ATATGCTC,0.0529
24,ATACGCAT,0.067
25,TTCTGCAA,0.182

row,Sequence,PBM E-score
1,ACCTAGTA,-0.316
2,AAGATAAG,0.0214
3,CACGGCGG,0.00072
4,CTATACGA,-0.125
5,ACCTATCA,-0.0625
6,CTGAGTCA,0.0791
7,AACCAAGT,0.00958
8,ATGTGACC,-0.00543
9,ATGAGAGA,0.00143
10,GGGCTGTA,-0.0896
11,TACCGGTA,-0.0278
12,AGACGATA,-0.051
13,AATGCGGA,-0.0654
14,GGCCTTAA,0.0816
15,TCTGCCAA,-0.0109
16,AAGCAGGA,0.0216
17,CCATATGG,-0.134
18,GGTCCCAA,0.018
19,CGACTGGA,0.0606
20,AGACCTGC,-0.0444
21,AACCGAAA,0.164
22,AAGACTTA,-0.0841
23,AGTCTGCC,-0.171
24,CCCCCAGC,-0.262
25,CATACCGA,-0.0873

row,Sequence,PBM E-score
1,GAAATTCC,-0.104
2,ATGGTAAG,0.0141
3,ACCTACAA,0.0183
4,CTCGACTC,-0.0794
5,GCGGACGC,-0.0691
6,CCCATTGC,-0.00318
7,CAAACATC,0.192
8,AAATAGTT,0.0872
9,AACGCGCC,-0.0769
10,ACAGGTAC,-0.0471
11,TATCAGGA,0.135
12,GAACGATC,-0.0508
13,TCACTGGA,-0.0212
14,CTACCCGC,-0.0854
15,CCTCCCGA,-0.129
16,GTCTGTAA,0.261
17,ATCACTGC,-0.0595
18,CGCCTCCA,-0.0513
19,ACAGTTCA,0.0125
20,GGATGGAC,-0.108
21,CATTCTGA,0.0007
22,GCGCTCAA,-0.258
23,CACCCTAA,0.0846
24,CTGCCAAC,-0.1
25,ACTTAGGC,-0.151

row,Sequence,PBM E-score
1,ACCCCGTC,-0.0261
2,TAAATGAA,0.185
3,GGCCCAAC,-0.145
4,GCTCTGAC,-0.0116
5,ACCACATG,0.039
6,CCGGAACA,0.0655
7,ACGGCCAG,-0.177
8,AAAGTCAA,0.189
9,AGTTAAAC,0.00327
10,AACCATGC,0.0898
11,AGTCCAGG,-0.207
12,AACAAGAT,0.0602
13,CAACCGCG,0.0561
14,CGATGCAC,-0.194
15,CTATCTAA,0.0807
16,GCAGGCAA,-0.137
17,AAATCAAT,0.071
18,CGGCCCCG,0.0097
19,AGGGTTAC,-0.237
